We go through 83 variants from the RNAGym collection of RNA variant scans (doi:10.1093/nar/gkz1192).

Read counts are not given, so values of variants with three or more changes are uncertain.

First the molecules themselves.
B1: CPEB3 Ribozyme (parent)
chain: UAACAGGGGGCCACAGCAGAAGCGUUCACGUCGCAGCCCCUGUCAGAUUCUGGUGAAUCUGCGAAUUCUGCUGUAUAUCUC

The series covers variants of B1. The experiment in a line: self-cleavage, relative activity (ratio to wild type); higher = more cleavage; in vitro, sequencing. The method in brief: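 Libraries of CPEB3 self-cleaving ribozyme mutants came from rounds of error-prone PCR and carried barcodes, which DNA sequencing matched to variants. In vitro transcription used T7 RNA polymerase at 37°C for 5 hours, with a further 15 min in DNase I before EDTA stopped the reaction; the ribozymes cleaved during both steps. The RNA was reverse transcribed with template switching and sequenced on Illumina. Relative activity is the cleaved/total read fraction of a variant divided by that of the unmutated ribozyme, averaged over three batches with at least 5 reads.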
In the case of C4U G9C A35U, the self-cleavage was 0.29.

For A5G A15G U74C U80A, the self-cleavage worked out at 1.

With A5G A35U U60C A65G, the self-cleavage stood at 0.2.

As for A5G A13C A45G U74C, the self-cleavage was found to be 0.49.

As to A5G C12G C44G A57G U72A U78C, the self-cleavage is 0.12.

As to A5C A13G A18U C40A U67C U78A, the self-cleavage turned out to be 0.17.

Turning to A5G C23A C37A A45U U49A A56G, the self-cleavage was 0.03.

As for C4U A35G C37A U51C U66C U67C, the self-cleavage was 0.16.

Turning to C4G C23G A28G A56G, the self-cleavage was 0.08.

In the case of A5G A20G A28U G30A, the self-cleavage was 0.31.

A5G A47G U48C U80C: the self-cleavage came to 0.09.

In the case of A5G A28U U74A, the self-cleavage came out at 1.07.

As to C4U A5G G42A A45G U60C U67C U78C, the self-cleavage was 0.19.

Take A5G A20C A57G U72G: the self-cleavage amounted to 0.11.

Turning to A5G A28U C32G U69C, the self-cleavage was determined as 0.17.

With A5G A35G A56G, the self-cleavage amounted to 1.14.

Regarding A5C U31C U41C, the self-cleavage was found to be 0.72.

As for A5G A28G U54C U67C A77U, the self-cleavage turned out to be 0.13.

Turning to A5C A45U U60C U72C, the self-cleavage stood at 0.56.

Regarding A5C U26A U51C U80C, the self-cleavage is 1.04.

For C4A U51C U58C, the self-cleavage amounted to 0.58.

Turning to A5C U43C U80C, the self-cleavage was 0.83.

Turning to C4U A28G A35G U80A, the self-cleavage was 1.18.

For the variant A5G A18U U54C G73U, the self-cleavage worked out at 0.34.

For A5C U43C U49A A57G U69C, the self-cleavage turned out to be 0.12.

As to A5G A13G A28G A35U A57G U69A A77G, the self-cleavage was 0.05.

With C4G G7U A21G A47G U49C G63U, the self-cleavage was determined as 0.05.

As to C4U A20U U25G, the self-cleavage came out at 0.57.

With C4G A5U A57U, the self-cleavage worked out at 0.71.

As to A5G A21G G53A U54A, the self-cleavage came out at 0.25.

For A5G A15G U51A C59U U72C, the self-cleavage stood at 0.42.

Turning to A5C C12A A15U U54C, the self-cleavage stood at 0.81.

Regarding A5G A20G U43A G61C C79G U80A, the self-cleavage amounted to 0.07.

Consider A5G A56G U60A A64G, for which the self-cleavage was 0.1.

For A5C A13U U25C U78C, the self-cleavage is 0.21.

Regarding A5G C14A A56G A65G, the self-cleavage came to 0.15.

With A5G C17U U43C U54C U67C, the self-cleavage came to 0.03.

As for A5G A13G A18U A47G C62U A75G, the self-cleavage amounted to 0.1.

A5G A15G A28G U54A U78A: the self-cleavage is 0.13.

For the variant A5C U41A U67C, the self-cleavage amounted to 0.17.

With C4G U69A U72C U76C, the self-cleavage was determined as 0.52.

As for C4A U25C A35G C40A U41A U54C A65U, the self-cleavage is 0.13.

For A5G A21U C50G U72G U80C, the self-cleavage came to 0.12.

Take C4G U41A G46A A75G: the self-cleavage stood at 0.04.

Take A5G A18G A35U: the self-cleavage is 0.5.

In the case of A5G A65G U67C, the self-cleavage worked out at 0.24.

As to A5C A18G A45U, the self-cleavage was 0.47.

A5G A35U A47U: the self-cleavage came to 0.32.

Take A5G A20G U60C U80C: the self-cleavage turned out to be 0.41.

A5C G8A G36U: the self-cleavage is 0.47.

In the case of A5C A56U U67A A75G U76C, the self-cleavage stood at 0.12.

With C4A U41C U49C U78C, the self-cleavage amounted to 0.76.

On to A5G A56C A65G, for which the self-cleavage was determined as 0.28.

As for A5G A45G G52A A64U U66G U72G, the self-cleavage was 0.09.

In the case of A5G A13G C62G A65U, the self-cleavage came out at 0.07.

Take A5G C14A C23U C38G U41A A64U: the self-cleavage came to 0.11.

C4U G30U U41A: the self-cleavage was 0.29.

For A5G C17U U41C, the self-cleavage came to 0.62.

With C4U A21G U31C U80C, the self-cleavage is 0.39.

Take A5C A18G U25C U54A A57G: the self-cleavage worked out at 0.07.

Turning to A5G A13G A15G A18U U49C U76C, the self-cleavage was determined as 0.47.

Take A5C G7A A21U A64U U69A: the self-cleavage came to 0.04.

On to A5G A13U U43C U60C U69C, for which the self-cleavage turned out to be 0.28.

With C4U A5U U26A U31C C39A G46A, the self-cleavage amounted to 0.12.

On to A5G C17U U41C U80C, for which the self-cleavage was 0.53.

On to A5C A45G U51C C81U, for which the self-cleavage is 0.78.

On to A5C A13G G36U A57U A64U U69C U78G, for which the self-cleavage was found to be 0.04.

As for A5G A35G U60A A65G, the self-cleavage worked out at 0.22.

Regarding A5G A64U G73A, the self-cleavage is 0.64.

Consider A5G C29U U49A C62A U69G U78C, for which the self-cleavage came out at 0.16.

Take C4U C29U U67A: the self-cleavage was 0.4.

For the variant A5G A28G U31C U72C, the self-cleavage turned out to be 0.71.

Regarding C4U A15G U66C, the self-cleavage worked out at 0.57.

With A5G A18C G33A A75U, the self-cleavage was 0.13.

With C4U A21C G22U U31C C38A U41G U74C, the self-cleavage was found to be 0.17.

Regarding A5G A56U C59G C62U, the self-cleavage was found to be 0.15.

As for C4A G8A U25A A57U U69A, the self-cleavage worked out at 0.06.

A5C U41A U43C U60C: the self-cleavage was 0.38.

With A5G A35G A77G, the self-cleavage stood at 1.27.

As to A5G A13U A18G A35G A57G U72G U74A, the self-cleavage is 0.59.

With C4U A13G G46A U54C, the self-cleavage was determined as 0.14.

As to A5G A45U A56G U58C A75G, the self-cleavage is 0.07.

Consider A5G A20G U25C A28U U48C U49A C68U, for which the self-cleavage came out at 0.11.
